Measurements: the supplement of paper PMC8728848
Some of the results follow.

How the values were obtained:
Test in all cases: glycan array binding signal (z-score within array); higher = stronger binding
Conditions in all cases: glycan notation: IUPAC condensed, linker removed
[1] = biological target: Fuc(a1-2)Gal(b1-4)GlcNAc(b1-3)Gal(b1-4)GlcNAc(b1-3)Gal(b1-4)GlcNAc
Outline: (§1)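 From the Consortium for Functional Glycomics database, 3228 arrays were curated, keeping only those whose protein sequence was available. Binding is given as a within-array Z-score averaged across arrays sharing a protein sequence and across linkers. Negative Z-scores can be read as non-binding.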

[2] = biological target: Fuc(a1-2)Gal(b1-4)GlcNAc(b1-3)GalNAc
Outline: as §1

[3] = biological target: Fuc(a1-2)Gal(b1-4)GlcNAc(b1-3)[Fuc(a1-2)Gal(b1-4)GlcNAc(b1-6)]GalNAc
Outline: as §1

[4] = biological target: Fuc(a1-2)Gal(b1-4)GlcNAc(b1-3)[Fuc(a1-3)[Gal(b1-4)]GlcNAc(b1-6)]Gal(b1-4)Glc
Outline: as §1

[5] = biological target: Fuc(a1-2)Gal(b1-4)GlcNAc(b1-6)GalNAc
Outline: as §1

[6] = biological target: Fuc(a1-2)Gal(b1-4)GlcNAc6S
Outline: as §1

[7] = biological target: Fuc(a1-2)Gal(b1-4)[Fuc(a1-3)]GlcNAc
Outline: as §1

[8] = biological target: Fuc(a1-2)Gal(b1-4)[Fuc(a1-3)]GlcNAc(b1-2)Man(a1-3)[Fuc(a1-2)Gal(b1-4)[Fuc(a1-3)]GlcNAc(b1-2)Man(a1-6)]Man(b1-4)GlcNAc(b1-4)[Fuc(a1-6)]GlcNAc
Outline: as §1

[9] = biological target: Fuc(a1-2)Gal(b1-4)[Fuc(a1-3)]GlcNAc(b1-2)[Fuc(a1-2)Gal(b1-4)[Fuc(a1-3)]GlcNAc(b1-4)]Man(a1-3)[Fuc(a1-2)Gal(b1-4)[Fuc(a1-3)]GlcNAc(b1-2)Man(a1-6)]Man(b1-4)GlcNAc(b1-4)GlcNAc
Outline: as §1

[10] = biological target: Fuc(a1-2)Gal(b1-4)[Fuc(a1-3)]GlcNAc(b1-3)Gal(b1-4)[Fuc(a1-3)]GlcNAc
Outline: as §1

[11] = biological target: Fuc(a1-2)Gal(b1-4)[Fuc(a1-3)]GlcNAc(b1-3)Gal(b1-4)[Fuc(a1-3)]GlcNAc(b1-3)Gal(b1-4)[Fuc(a1-3)]GlcNAc
Outline: as §1

[12] = biological target: Fuc(a1-2)Gal(b1-4)[Fuc(a1-3)]GlcNAc(b1-3)GalNAc
Outline: as §1

[13] = biological target: Fuc(a1-2)Gal(b1-4)[Fuc(a1-3)]GlcNAc(b1-3)[Neu5Ac(a2-6)Gal(b1-4)GlcNAc(b1-6)]Gal(b1-4)Glc
Outline: as §1

[14] = biological target: Fuc(a1-2)Gal3S(b1-4)GlcNAc
Outline: as §1

[15] = biological target: Fuc(a1-2)Gal6S(b1-3)GlcNAc
Outline: as §1

[16] = biological target: Fuc(a1-2)Gal6S(b1-3)GlcNAc6S
Outline: as §1

[17] = biological target: Fuc(a1-2)Gal6S(b1-4)Glc
Outline: as §1

[18] = biological target: Fuc(a1-2)Gal6S(b1-4)Glc6S
Outline: as §1

[19] = biological target: Fuc(a1-2)[Gal(a1-3)]Gal
Outline: as §1

[20] = biological target: Fuc(a1-2)[Gal(a1-3)]Gal(b1-3)GalNAc
Outline: as §1

[21] = biological target: Fuc(a1-2)[Gal(a1-3)]Gal(b1-3)GalNAc(b1-3)Gal(a1-4)Gal(b1-4)Glc
Outline: as §1

[22] = biological target: Fuc(a1-2)[Gal(a1-3)]Gal(b1-3)GlcNAc
Outline: as §1

[23] = biological target: Fuc(a1-2)[Gal(a1-3)]Gal(b1-3)GlcNAc(b1-2)Man(a1-3)[Fuc(a1-2)[Gal(a1-3)]Gal(b1-3)GlcNAc(b1-2)Man(a1-6)]Man(b1-4)GlcNAc(b1-4)GlcNAc
Outline: as §1

[24] = biological target: Fuc(a1-2)[Gal(a1-3)]Gal(b1-3)GlcNAc(b1-2)Man(a1-3)[Fuc(a1-2)[Gal(a1-3)]Gal(b1-3)GlcNAc(b1-2)Man(a1-6)]Man(b1-4)GlcNAc(b1-4)[Fuc(a1-6)]GlcNAc
Outline: as §1

[25] = biological target: Fuc(a1-2)[Gal(a1-3)]Gal(b1-3)GlcNAc(b1-3)GalNAc
Outline: as §1

[26] = biological target: Fuc(a1-2)[Gal(a1-3)]Gal(b1-3)GlcNAc(b1-6)GalNAc
Outline: as §1

[27] = biological target: Fuc(a1-2)[Gal(a1-3)]Gal(b1-4)Glc
Outline: as §1

[28] = biological target: Fuc(a1-2)[Gal(a1-3)]Gal(b1-4)GlcNAc
Outline: as §1

[29] = biological target: Fuc(a1-2)[Gal(a1-3)]Gal(b1-4)GlcNAc(b1-2)Man
Outline: as §1

[30] = biological target: Fuc(a1-2)[Gal(a1-3)]Gal(b1-4)GlcNAc(b1-2)Man(a1-3)[Fuc(a1-2)[Gal(a1-3)]Gal(b1-4)GlcNAc(b1-2)Man(a1-6)]Man(b1-4)GlcNAc(b1-4)GlcNAc
Outline: as §1

B1: CPA (Cicer arietinum) (protein)
chain: MAFSYLNLVLVTLTTLFFLQTTKVKSQKSVSFHITNFTISRPSITLQGTAEFLPNVLLLNDIEHPVFVVGRALYSKPITLWNNKTGKVASFVTSFTFDVQDLKKTVPGHGLVFFLAPSGSEIPFSSDGGNLGVVDGKNAFNRFVGVEFDNFVNSWDPKYSHVGINVNSLISTKTVKWNRVSGELVKVSIVYDSVSTTLTVIVTYKNGQISILSQLVDLKAVLPDTVNIGFSASTTLVSPRQLHNIHSWSFTSTFET
Question: B1 was tested. Which “glycan array binding signal (z-score)” value [1] did it give?
Answer: -0.4

Question: What about the “glycan array binding signal (z-score)” value [2] of the same binder?
Answer: -0.18

Question: What about the “glycan array binding signal (z-score)” value [3] of the same binder?
Answer: -0.156

Question: And the “glycan array binding signal (z-score)” value [4]?
Answer: -0.415

Question: What about the “glycan array binding signal (z-score)” value [5] of the same binder?
Answer: 1.15

Question: And the “glycan array binding signal (z-score)” value [6]?
Answer: -0.13

Question: And the “glycan array binding signal (z-score)” value [7]?
Answer: -0.517

Question: What about the “glycan array binding signal (z-score)” value [8] of the same binder?
Answer: 1.26

Question: And the “glycan array binding signal (z-score)” value [9]?
Answer: 0.531

Question: And the “glycan array binding signal (z-score)” value [10]?
Answer: -0.681

Question: What about the “glycan array binding signal (z-score)” value [11] of the same binder?
Answer: -0.685

Question: What about the “glycan array binding signal (z-score)” value [12] of the same binder?
Answer: 1.62

Question: And the “glycan array binding signal (z-score)” value [13]?
Answer: -0.429

Question: What about the “glycan array binding signal (z-score)” value [14] of the same binder?
Answer: -0.683

Question: What about the “glycan array binding signal (z-score)” value [15] of the same binder?
Answer: -0.432

Question: And the “glycan array binding signal (z-score)” value [16]?
Answer: 0.604

Question: What about the “glycan array binding signal (z-score)” value [17] of the same binder?
Answer: -0.439

Question: What about the “glycan array binding signal (z-score)” value [18] of the same binder?
Answer: -0.459

Question: What about the “glycan array binding signal (z-score)” value [19] of the same binder?
Answer: -0.469

Question: And the “glycan array binding signal (z-score)” value [20]?
Answer: -0.461

Question: What about the “glycan array binding signal (z-score)” value [21] of the same binder?
Answer: -0.581

Question: And the “glycan array binding signal (z-score)” value [22]?
Answer: -0.159

Question: What about the “glycan array binding signal (z-score)” value [23] of the same binder?
Answer: -0.655

Question: And the “glycan array binding signal (z-score)” value [24]?
Answer: -0.184

Question: And the “glycan array binding signal (z-score)” value [25]?
Answer: -0.431

Question: And the “glycan array binding signal (z-score)” value [26]?
Answer: -0.634

Question: And the “glycan array binding signal (z-score)” value [27]?
Answer: -0.387

Question: And the “glycan array binding signal (z-score)” value [28]?
Answer: -0.028

Question: What about the “glycan array binding signal (z-score)” value [29] of the same binder?
Answer: -0.454

Question: And the “glycan array binding signal (z-score)” value [30]?
Answer: 0.562
